# Experimental data as given in publication PMC4336329 (PLoS ONE, 2015).
# Hit rate of the full screen: of about 310,000 compounds, about 2,200 (0.71%) showed an effect of 50% or more. The effect is printed as a negative number. Some of the results follow.
# Target: human ether-à-go-go-related gene (hERG) potassium channel (human, UniProt Q12809)
# Assay: primary screen, population patch clamp on CHO cells stably expressing hERG
# human ether-à-go-go-related gene (hERG) potassium channel, sequence (Q12809 whole entry, looked up): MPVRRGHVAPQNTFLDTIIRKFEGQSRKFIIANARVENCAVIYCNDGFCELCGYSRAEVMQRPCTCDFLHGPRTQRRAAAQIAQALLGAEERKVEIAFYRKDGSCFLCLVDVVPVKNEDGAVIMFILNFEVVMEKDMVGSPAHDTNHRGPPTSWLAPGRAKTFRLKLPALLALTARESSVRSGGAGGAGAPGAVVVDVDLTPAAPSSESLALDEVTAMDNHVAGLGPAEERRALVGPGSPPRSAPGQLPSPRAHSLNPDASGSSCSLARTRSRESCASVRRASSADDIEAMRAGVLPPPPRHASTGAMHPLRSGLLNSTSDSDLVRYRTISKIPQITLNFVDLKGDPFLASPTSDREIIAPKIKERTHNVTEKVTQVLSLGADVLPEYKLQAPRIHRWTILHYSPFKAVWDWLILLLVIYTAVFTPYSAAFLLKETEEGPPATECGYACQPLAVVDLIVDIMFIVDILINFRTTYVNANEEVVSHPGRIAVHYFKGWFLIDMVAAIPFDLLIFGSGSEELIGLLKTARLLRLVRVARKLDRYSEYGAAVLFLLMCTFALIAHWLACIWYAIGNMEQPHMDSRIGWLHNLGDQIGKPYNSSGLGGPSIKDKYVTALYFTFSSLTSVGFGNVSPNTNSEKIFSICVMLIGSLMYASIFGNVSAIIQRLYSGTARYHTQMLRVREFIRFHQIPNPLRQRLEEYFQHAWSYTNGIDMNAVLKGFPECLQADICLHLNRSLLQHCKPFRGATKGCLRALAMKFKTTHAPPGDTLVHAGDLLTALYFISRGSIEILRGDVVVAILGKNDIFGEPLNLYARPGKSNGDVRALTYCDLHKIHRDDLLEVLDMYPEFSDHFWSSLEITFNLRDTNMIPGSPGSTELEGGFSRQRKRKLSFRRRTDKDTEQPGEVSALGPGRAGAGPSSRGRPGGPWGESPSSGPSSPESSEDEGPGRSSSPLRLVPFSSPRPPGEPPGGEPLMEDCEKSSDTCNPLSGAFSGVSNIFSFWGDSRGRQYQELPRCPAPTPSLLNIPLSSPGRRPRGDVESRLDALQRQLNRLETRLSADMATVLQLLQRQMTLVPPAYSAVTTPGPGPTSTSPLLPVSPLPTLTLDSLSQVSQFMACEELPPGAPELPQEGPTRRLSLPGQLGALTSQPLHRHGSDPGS
row,SMILES,"hERG current change (%, negative = inhibition) at 1uM [%]"
1,O=C(CCc1ccc(S(=O)(=O)NCc2ccccc2)cc1)NCc1cccnc1,1.42
2,COc1cc(/C=C2/C(=O)NN(c3ccc(Cl)cc3)C2=O)cc(Br)c1O,16.8
3,COc1ccccc1CCNC(=O)C(=O)Nc1cc2c3c(c1)CC(=O)N3CCC2,1.44
4,COc1cc(C2NC(=O)NC(C)=C2C(=O)OC2CCCCC2)cc(Cl)c1O (stereo not shown),6.98
5,CCC(CCC(=O)Nc1ccn(-c2ccccc2)n1)C(=O)O (stereo not shown),7.09
6,Cc1cccc(NC(=O)c2ccoc2C)n1,17
7,O=C(Cn1nc(-c2ccccc2)c2ccccc2c1=O)Nc1cccnc1,7.68
8,CCc1ccc(N2CC(C(=O)OCC(=O)NNC(=O)c3ccccc3)CC2=O)cc1 (stereo not shown),10.4
9,O=C(CCn1c(=O)oc2cc(Cl)ccc21)Nc1ccc(O)cc1,6.07
10,O=C(CNC(=O)c1ccccc1F)NCCc1ccccc1F,10.8
11,CC(C)C(C)(C#N)NC(=O)CSc1nc2scc(-c3ccc(F)cc3)c2c(=O)n1Cc1ccccc1 (stereo not shown),19.2
12,CCCCC(=O)NC(=O)NC(c1ccccc1)c1ccccc1,6.43
13,O=C(CN1C(=O)NC2(CCCCCCC2)C1=O)Nc1ccc(Br)cc1,7.76
14,COc1ccc(CCNC(=O)C2CCC(=O)N2CCc2ccccc2)cc1OC (stereo not shown),13.9
15,COc1ccc(C)cc1S(=O)(=O)N(CC(=O)N1CCCC1)c1ccc(C)cc1,-25.1
16,Cc1nc2cc(N)ccc2n1-c1ccccc1,10.7
17,COCCNC(=S)NNC(=O)CSCc1ccc(Cl)cc1Cl,12.5
18,COc1ccc(CN2C(=NC(=O)CCC3CCCC3)SC3CS(=O)(=O)CC32)cc1 (stereo not shown),15
19,Cc1ccc(Cn2nnc3c(=O)n(CC(=O)NCC4CCCO4)cnc32)cc1 (stereo not shown),1.92
20,CCOC(=O)c1oc2cc(OCC(N)=O)ccc2c(=O)c1-c1ccc(OC)c(OC)c1,15.2
21,COCCNC(=O)CN1CCN(C(c2ccccc2)c2ccccc2)CC1.O=C(O)C(=O)O,1.83
22,CCOC(=O)N1CCN(C(=O)C2CCC(CNS(=O)(=O)c3ccccc3)CC2)CC1 (stereo not shown),-0.59

row,SMILES,"hERG current change (%, negative = inhibition) at 1uM [%]"
1,CCC(CC)c1nnc(NC(=O)Cc2ccccc2[N+](=O)[O-])s1,11.8
2,CCCCN(C)CCN1C(=O)C2C(C(=O)Nc3ccc(OC)cc3)C3C=CC2(O3)C1C(=O)NC1CCCCC1 (stereo not shown),3.44
3,COc1ccccc1CCc1nnc(CCC(=O)NCC(C)Oc2cccnc2)o1 (stereo not shown),3.33
4,O=C(O)c1cc(NC(=O)c2ccc(Br)cc2)cc(NC(=O)c2ccc(Br)cc2)c1,17.3
5,O=C(COc1ccc2ccccc2c1)Nc1cccc2cccnc12,7.64
6,COc1ccc2c(CC(=O)OCC(=O)NC(N)=O)coc2c1,6.38
7,CCNS(=O)(=O)c1ccc(NC(=O)Cc2ccc(F)cc2)cc1,7.95
8,O=C(COc1ccccc1Cl)NC(=O)NC1CCCC1,9.64
9,COc1cc(OC)cc(N(C(=O)C2COc3ccccc3O2)C(C(=O)NC2CCCCC2)c2ccc(O)cc2)c1 (stereo not shown),10.1
10,O=C(NCc1cccc(CNC(=O)C(=O)NCC2CCCO2)c1)C(=O)NCC1CCCO1 (stereo not shown),7.96
11,COc1ccc(C2C(C(=O)NCc3ccccn3)c3cc(OC)c(OC)cc3C(=O)N2C)cc1 (stereo not shown),0.802
12,O=C(CCn1c(=S)[nH]c2ccccc2c1=O)Nc1cccc(Cl)c1,7.43
13,Cn1c(=O)c2nnn(/N=C(\c3ccccc3)C3CC3)c2n(C)c1=O,-1.59
14,CC(=O)Nc1ccc(SC(C)C(=O)NC(N)=O)cc1 (stereo not shown),12
15,O=C(CSc1nc(-c2ccc(F)cc2)cs1)NCCN1C(=O)CSC1=O,2.97
16,Cc1cc(C)n(-c2nc3ccccc3nc2N2CCC(C)CC2)n1,-9.63
17,Cc1cc(C)n(-c2ccc(OCC(=O)O)nn2)n1,4.94
18,Cc1ccc(-c2ccc(/C=N/NC(=S)Nc3ccccc3)o2)cc1[N+](=O)[O-],14.6
19,O=C(NCCN1CCOCC1)c1cc(-c2ccc(F)cc2)on1,-3.76
20,COc1ccc(/C=C2/NC(=O)N(Cc3ccccc3F)C2=O)cc1OC,2.5
21,CC(C)Oc1cccc(C(=O)Nc2ccc(N3CCN(S(C)(=O)=O)CC3)cc2)c1,5.08
22,CCOC(=O)c1c(/N=C/N(C)C)sc(/C=N/Nc2ccccc2)c1-c1ccc(Cl)cc1,15.9

row,SMILES,"hERG current change (%, negative = inhibition) at 1uM [%]"
1,CC(=O)Nc1ccc(Nc2cc(C)nc(Nc3ccc(NC(C)=O)cc3)n2)cc1,6.4
2,C#CCNC(=O)C1=C[C@H](c2ccc(Br)cc2)C[C@H](OCc2ccc(CO)cc2)O1,11
3,COC(=O)c1ccccc1NC(=O)CN1CCC(C)CC1,-0.0967
4,O=C1NC(=O)N(CCc2ccc(F)cc2)C(=O)/C1=C/c1cccs1,11.6
5,CCOC(=O)Cc1csc(NC(=O)C(C)c2ccc([N+](=O)[O-])cc2)n1 (stereo not shown),-7.17
6,COc1ccccc1OC(=O)c1ccc2nsnc2c1,2.75
7,Cc1ccc(S(=O)(=O)N2CCOCC2)cc1NC(=O)CNC1CCCC1.O=C(O)C(=O)O,12.6
8,Cc1ccc(S(=O)(=O)N2CCN(C(=O)c3cc(C4CC4)nc4c3cnn4C(C)C)CC2)cc1,6.5
9,CCn1c(=O)c2c(nc3n2CCCN3CCc2ccc(OC)c(OC)c2)n(C)c1=O,4.99
10,CCC(=O)Nc1cccc(-n2nnnc2SCC(=O)NCc2ccco2)c1,6.16
11,CCCCSc1nc2sc3c(c2c(=O)n1-c1ccc(C)cc1)CCN(C)C3,12.1
12,COCCn1nnnc1C(c1ccc(OC)cc1)N1CCN(C(=O)c2ccco2)CC1.Cl (stereo not shown),9.88
13,CCOC(=O)c1cnc2ccc(C(=O)OC)cc2c1Nc1ccc(C(=O)O)cc1.Cl,6.81
14,O=C(O)c1nnn(-c2ccc([N+](=O)[O-])cc2)c1-c1ccccc1,9.65
15,Cc1cc(=O)oc2c3c(cc(OCC(=O)Nc4ccc(CCO)cc4)c12)OC(C)(C)CC3,18.5
16,O=C(CSc1nnnn1C1CCCC1)NCc1cccs1,-6.69
17,C=CCNC(=O)c1ccccc1NC(=O)C1COc2ccccc2O1 (stereo not shown),12.2
18,O=C(Nc1ccccc1)C1CCCCC1,5.32
19,Cc1ccc(CNCC2CCCO2)o1 (stereo not shown),4.27
20,CCOC(=O)c1ccc(COC(=O)CCc2nc3ccccc3[nH]c2=O)o1,10.6
21,O=C(O)CN1C(=O)S/C(=C\c2ccc3c(c2)OCO3)C1=O,3.59
22,CCC(=O)c1ccc(OCC(=O)Nc2ccc(N3CCOCC3)cc2N2CCOCC2)cc1,12.3

row,SMILES,"hERG current change (%, negative = inhibition) at 1uM [%]"
1,O=C(Cc1ccc(F)cc1)Nc1ccc(Cl)cn1,14.8
2,O=C(N/N=C/c1ccccc1)c1ccc(N2CCCC2=O)cc1,11.9
3,CC(C)c1ccc(OCC(O)CN2CCN(c3ccccn3)CC2)cc1.Cl (stereo not shown),-27.7
4,CN1CCN(C(=O)C2(NC(=O)Nc3ccccc3Cl)CCCCC2)CC1,16.2
5,CC(Oc1cc2oc(=O)c3c(c2cc1Cl)CCC3)C(=O)NCCCN1CCCC1=O (stereo not shown),14
6,CC(=O)N1c2ccc(S(=O)(=O)N3CCC(C(=O)N4CCN(c5cc(Cl)ccc5C)CC4)CC3)cc2CC1C (stereo not shown),-0.163
7,COc1ccc(-c2cc(C)no2)cc1S(=O)(=O)NCc1cccc(C)c1,-1.81
8,COCCc1ccc(OCC(O)CNC(C)C)cc1.O=C(O)[C@H](O)[C@@H](O)C(=O)O (stereo not shown),4.84
9,Cc1cc(N2C(=O)C3C4CC(C(Br)C4Br)C3C2=O)no1 (stereo not shown),30
10,O=C(Nc1ccc2c(c1)OCO2)c1c(F)c(F)c(F)c(F)c1F,1.53
11,Cc1cc(C)cc(CSc2nnc(C)c(=O)[nH]2)c1,-4.44
12,O=C(NCCN1CCN(C(=O)Nc2ccccc2)CC1)Nc1ccccc1,8.07
13,CC12CCC(CC1=O)C2(C)C (stereo not shown),17.3
14,Cc1ccccc1NC(=O)COc1ccc(Br)cc1C,18.6
15,COC1(c2ccccc2)NC(=S)NN=C1c1ccccc1 (stereo not shown),8.24
16,Cc1ccc2cc(CCNC(=O)C3CCCC3)c(=O)[nH]c2c1,11.2
17,CC(O)CCC(=O)NNC1=CC(=O)CC(C)(C)C1 (stereo not shown),1.27
18,COc1cc(C(O)c2nc3ccccc3s2)cc(OC)c1OC (stereo not shown),13
19,CCCNC(=O)c1cc(Cl)c(NC(=O)C2=C(C)OCCS2)cc1OC,-13.4
20,O=C(CS(=O)(=O)c1ccc(F)cc1)Nc1nccs1,12.7
21,O=C(CSc1n[nH]c(=O)[nH]c1=O)NC1CC1,11.3
22,COc1ccc(C2/C(=C(/O)c3ccc(S(=O)(=O)N4CCOCC4)cc3)C(=O)C(=O)N2CCN2CCOCC2)cc1 (stereo not shown),10
